Measured values as given in paper PMC12820563, “FoxP3 forms a head-to-head dimer in vivo and stabilizes its multimerization on adjacent microsatellites”.
The list shows a part of the results.

target: T1, MBP-FoxP1dN (Mus musculus, UniProt P58462 326-579); assay: PD-seq (MBP pull-down with sequencing); 20 mM Tris-HCl pH 7.5, 100 mM NaCl, 1.5 mM MgCl2, 0.4 uM protein, 0.1 uM dsDNA library, 30 min, room temperature, amylose pull-down; high values mean tight binding; conditions: protein: recombinant; tags: His6-MBP; chain copies: 2; dsDNA, one strand shown
T1 sequence: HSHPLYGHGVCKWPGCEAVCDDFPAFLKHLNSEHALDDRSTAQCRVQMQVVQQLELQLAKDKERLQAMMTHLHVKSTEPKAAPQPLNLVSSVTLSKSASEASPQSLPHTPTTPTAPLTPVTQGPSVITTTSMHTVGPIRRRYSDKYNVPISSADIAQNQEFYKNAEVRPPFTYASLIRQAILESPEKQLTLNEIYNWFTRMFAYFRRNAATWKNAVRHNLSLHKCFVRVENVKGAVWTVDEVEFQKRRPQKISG
Method in brief: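 In Tris pH 7.5 buffer with NaCl and MgCl2, 0.4 µM His6-MBP-tagged mouse FoxP3 or FoxP1 fragment lacking the N-terminus, from E. coli, met 0.1 µM Klenow-filled double-stranded degenerate DNA library for 30 min at room temperature. Three washes on amylose resin followed capture of the complexes, then proteinase K release of DNA, PCR barcoding and Illumina sequencing. Binding is taken as pooled-replicate reads-per-million enrichment of pull-down relative to input.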

Question: For “GATGATTGTTCTCCCAGCTGATGAATTAGTAACATCGAGTAAACAAATTTTCCTAATCTTTCTGTTCAAGCGCCATCTAC”, which binding signal is on record?
Answer: Its binding signal is 1.45 RPM ratio (pull-down/input).

Question: How did the binding signal turn out when “GATGATTGTTCTCCCAGCTGATGAATTACACAGATCGAGTAAACAAATTTTCCTAATCTTTCTGTTCAAGCGCCATCTAC” was run?
Answer: Its binding signal is 1.18 RPM ratio (pull-down/input).

Question: Which binding signal does the source give for “GATGATTGTTCTCCCAGCTGATGAATTGATTTCATCGAGTAAACAAATTTTCCTAATCTTTCTGTTCAAGCGCCATCTAC” here?
Answer: The binding signal was 1.2 RPM ratio (pull-down/input).

Question: Which binding signal does the source give for “GATGATTGTTCTCCCAGCTGATGAATTTGTAGTTTCGAGTAAACAAATTTTCCTAATCTTTCTGTTCAAGCGCCATCTAC” here?
Answer: Its binding signal is 1.18 RPM ratio (pull-down/input).

Question: With “GATGATTGTTCTCCCAGCTGATGAATTACCGCTCTCGAGTAAACAAATTTTCCTAATCTTTCTGTTCAAGCGCCATCTAC” as the sequence, how does the binding signal read?
Answer: The binding signal was 0.944 RPM ratio (pull-down/input).

Question: Which binding signal does the source give for “GATGATTGTTCTCCCAGCTGATGAATTAGGACGCTCGAGTAAACAAATTTTCCTAATCTTTCTGTTCAAGCGCCATCTAC” here?
Answer: Its binding signal is 0.944 RPM ratio (pull-down/input).

Question: With “GATGATTGTTCTCCCAGCTGATGAATTGCAGTTGTCGAGTAAACAAATTTTCCTAATCTTTCTGTTCAAGCGCCATCTAC” as the sequence, how does the binding signal read?
Answer: The binding signal was 1.34 RPM ratio (pull-down/input).

Question: “GATGATTGTTCTCCCAGCTGATGAATTTGAAGGCTCGAGTAAACAAATTTTCCTAATCTTTCTGTTCAAGCGCCATCTAC” was tested. Which binding signal did it give?
Answer: Its binding signal is 0.783 RPM ratio (pull-down/input).

Question: Which binding signal does the source give for “GATGATTGTTCTCCCAGCTGATGAATTGAATAATTCGAGTAAACAAATTTTCCTAATCTTTCTGTTCAAGCGCCATCTAC” here?
Answer: Its binding signal is 0.946 RPM ratio (pull-down/input).

Question: With “GATGATTGTTCTCCCAGCTGATGAATTCTAAACTTCGAGTAAACAAATTTTCCTAATCTTTCTGTTCAAGCGCCATCTAC” as the sequence, how does the binding signal read?
Answer: The binding signal was 0.947 RPM ratio (pull-down/input).

Question: With “GATGATTGTTCTCCCAGCTGATGAATTGCAGCCGTCGAGTAAACAAATTTTCCTAATCTTTCTGTTCAAGCGCCATCTAC” as the sequence, how does the binding signal read?
Answer: Its binding signal is 1.06 RPM ratio (pull-down/input).

Question: Which binding signal does the source give for “GATGATTGTTCTCCCAGCTGATGAATTCTCGTGGTCGAGTAAACAAATTTTCCTAATCTTTCTGTTCAAGCGCCATCTAC” here?
Answer: Its binding signal is 0.784 RPM ratio (pull-down/input).

Question: For “GATGATTGTTCTCCCAGCTGATGAATTGAACAGATCGAGTAAACAAATTTTCCTAATCTTTCTGTTCAAGCGCCATCTAC”, which binding signal is on record?
Answer: Its binding signal is 0.883 RPM ratio (pull-down/input).

Question: Which binding signal does the source give for “GATGATTGTTCTCCCAGCTGATGAATTGGCTCGATCGAGTAAACAAATTTTCCTAATCTTTCTGTTCAAGCGCCATCTAC” here?
Answer: Its binding signal is 0.816 RPM ratio (pull-down/input).

Question: Which binding signal does the source give for “GATGATTGTTCTCCCAGCTGATGAATTGGCATTGTCGAGTAAACAAATTTTCCTAATCTTTCTGTTCAAGCGCCATCTAC” here?
Answer: Its binding signal is 1.03 RPM ratio (pull-down/input).

Question: “GATGATTGTTCTCCCAGCTGATGAATTGACCGTCTCGAGTAAACAAATTTTCCTAATCTTTCTGTTCAAGCGCCATCTAC” was tested. Which binding signal did it give?
Answer: Its binding signal is 0.883 RPM ratio (pull-down/input).

Question: For “GATGATTGTTCTCCCAGCTGATGAATTCGAATCATCGAGTAAACAAATTTTCCTAATCTTTCTGTTCAAGCGCCATCTAC”, which binding signal is on record?
Answer: The binding signal was 0.948 RPM ratio (pull-down/input).

Question: “GATGATTGTTCTCCCAGCTGATGAATTCTCGCTCTCGAGTAAACAAATTTTCCTAATCTTTCTGTTCAAGCGCCATCTAC” was tested. Which binding signal did it give?
Answer: Its binding signal is 0.867 RPM ratio (pull-down/input).

Question: With “GATGATTGTTCTCCCAGCTGATGAATTCGAGCGGTCGAGTAAACAAATTTTCCTAATCTTTCTGTTCAAGCGCCATCTAC” as the sequence, how does the binding signal read?
Answer: Its binding signal is 0.717 RPM ratio (pull-down/input).

Question: How did the binding signal turn out when “GATGATTGTTCTCCCAGCTGATGAATTAATGCGTTCGAGTAAACAAATTTTCCTAATCTTTCTGTTCAAGCGCCATCTAC” was run?
Answer: The binding signal was 1.28 RPM ratio (pull-down/input).

Question: “GATGATTGTTCTCCCAGCTGATGAATTATGTGGCTCGAGTAAACAAATTTTCCTAATCTTTCTGTTCAAGCGCCATCTAC” was tested. Which binding signal did it give?
Answer: The binding signal was 1.08 RPM ratio (pull-down/input).

Question: “GATGATTGTTCTCCCAGCTGATGAATTGCAAACATCGAGTAAACAAATTTTCCTAATCTTTCTGTTCAAGCGCCATCTAC” was tested. Which binding signal did it give?
Answer: The binding signal was 2.29 RPM ratio (pull-down/input).

Question: How did the binding signal turn out when “GATGATTGTTCTCCCAGCTGATGAATTGATCAAGTCGAGTAAACAAATTTTCCTAATCTTTCTGTTCAAGCGCCATCTAC” was run?
Answer: Its binding signal is 0.948 RPM ratio (pull-down/input).

Question: “GATGATTGTTCTCCCAGCTGATGAATTTTTAGGATCGAGTAAACAAATTTTCCTAATCTTTCTGTTCAAGCGCCATCTAC” was tested. Which binding signal did it give?
Answer: The binding signal was 0.839 RPM ratio (pull-down/input).

Question: For “GATGATTGTTCTCCCAGCTGATGAATTCCGCTCGTCGAGTAAACAAATTTTCCTAATCTTTCTGTTCAAGCGCCATCTAC”, which binding signal is on record?
Answer: The binding signal was 0.791 RPM ratio (pull-down/input).

Question: Which binding signal does the source give for “GATGATTGTTCTCCCAGCTGATGAATTTCCCACGTCGAGTAAACAAATTTTCCTAATCTTTCTGTTCAAGCGCCATCTAC” here?
Answer: Its binding signal is 0.92 RPM ratio (pull-down/input).

Question: Which binding signal does the source give for “GATGATTGTTCTCCCAGCTGATGAATTTTTTGTGTCGAGTAAACAAATTTTCCTAATCTTTCTGTTCAAGCGCCATCTAC” here?
Answer: The binding signal was 1.12 RPM ratio (pull-down/input).

Question: With “GATGATTGTTCTCCCAGCTGATGAATTAGGCACGTCGAGTAAACAAATTTTCCTAATCTTTCTGTTCAAGCGCCATCTAC” as the sequence, how does the binding signal read?
Answer: Its binding signal is 0.943 RPM ratio (pull-down/input).

Question: With “GATGATTGTTCTCCCAGCTGATGAATTTTGAGCGTCGAGTAAACAAATTTTCCTAATCTTTCTGTTCAAGCGCCATCTAC” as the sequence, how does the binding signal read?
Answer: Its binding signal is 0.967 RPM ratio (pull-down/input).

Question: Which binding signal does the source give for “GATGATTGTTCTCCCAGCTGATGAATTGGCGATATCGAGTAAACAAATTTTCCTAATCTTTCTGTTCAAGCGCCATCTAC” here?
Answer: Its binding signal is 0.926 RPM ratio (pull-down/input).

Question: Which binding signal does the source give for “GATGATTGTTCTCCCAGCTGATGAATTTTAGGAGTCGAGTAAACAAATTTTCCTAATCTTTCTGTTCAAGCGCCATCTAC” here?
Answer: Its binding signal is 0.815 RPM ratio (pull-down/input).

Question: With “GATGATTGTTCTCCCAGCTGATGAATTATGGGGATCGAGTAAACAAATTTTCCTAATCTTTCTGTTCAAGCGCCATCTAC” as the sequence, how does the binding signal read?
Answer: The binding signal was 0.922 RPM ratio (pull-down/input).
